Test [1] addresses T1, Human IL-15R beta/CD122 Protein, His Tag (Acro Biosystems CD2-H5221) (human, UniProt P14784 27-239).
T1 construct: Bought recombinant protein with a His tag; also called Human IL-15Rβ protein; IL-15 receptor beta-His
T1 sequence (looked up): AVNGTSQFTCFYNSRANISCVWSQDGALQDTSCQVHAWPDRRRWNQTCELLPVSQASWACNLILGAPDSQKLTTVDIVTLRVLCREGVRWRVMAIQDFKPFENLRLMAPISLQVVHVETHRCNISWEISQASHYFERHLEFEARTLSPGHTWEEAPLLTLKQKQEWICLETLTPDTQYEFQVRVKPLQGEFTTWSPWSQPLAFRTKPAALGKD
Briefly: SPR (Biacore), molecule captured on anti-human IgG Fc chip, antigen as analyte, 1:1 Langmuir fit. The method, then:
In brief, the test molecules were first immobilized on a goat anti-human IgG (Fc specific) antibody plated on a Biacore CM5 Series S sensor chip (CFJB1172, Cytiva Cat No. 29149603) by injection at 5 nM at flow rate 30 ul/min. […] The quality of the fits was assessed by visual inspection.
(In general: Surface plasmon resonance follows binding to a sensor surface in real time, without labels.)

Test [2] has as its target T2, Human his-tagged NKG2D/CD314 (Acro Biosystems, NKD-H5245) (human, UniProt P26718 78-216, limits assumed).
T2 construct: Bought recombinant protein with a His tag; also called Human NKG2D-His protein; NKG2D-His
T2 sequence (looked up): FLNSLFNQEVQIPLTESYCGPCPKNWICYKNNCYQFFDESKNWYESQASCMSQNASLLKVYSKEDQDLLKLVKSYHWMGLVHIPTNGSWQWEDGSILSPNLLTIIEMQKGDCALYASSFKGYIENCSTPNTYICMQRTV
Kind of test: SPR avidity format, antigen immobilised on CM5 chip, test molecule injected as analyte. From the text:
(§1) In order explore avidity binding effects (rather than affinity), a different assay orientation was employed. Specifically, the recombinant target human antigens (NKG2D-His or IL-15 receptor beta-His antigens, see Example 5) were immobilized on CM5 Series S sensor chips (Cytiva, catalogue number 29149603). […] Irrelevant mAbs were employed to determine and subtract background. As previously (Example 5), standard regeneration solutions and buffers were employed. To determine and compare avidity effects, test molecules were the injected in stepwise serial dilutions and sensogram responses generated.

The target in test [3] is T1, Human IL-15R beta/CD122 Protein, His …. Kind of test: SPR avidity format, antigen immobilised on CM5 chip, test molecule injected as analyte; avidity format of Table 6 (Example 6).
Excerpt: as §1

B1: CYTB15 (other)
heavy: EIQLLESGGGLVQPGGSLRLSCAVSGFSITTTGYHWNWVRQAPGKGLEWVGYIYSSGSTSYNPSLKSRFTISRDTSKNTFYLQMNSLRAEDTAVYYCARGDWHYFDYWGQGTMVTVSS[human IgG1 constant region omitted here]GGSITCPPPMSVEHADIWVKSYSLYSRERYICNSGFKRKAGTSSLTECVLNKATNVAHWTTPSLKCIRGGGGSGGGSGGGGS[about 120 residues omitted here]
light: DSVTTQSPLSLPVTLGQPASISCSGEKLSDKYVHWYQQRPGQSPRMLIYENDRRPSGVPDRFSGSNSGNDATLKISRVEAEDVGVYFCQFWDSTNSAVFGGGTKVEIKRTVAAPSVFIFPPSDEQLKSGTASVVCLLNNFYPREAKVQWKVDNALQSGNSQESVTEQDSKDSTYSLSSTLTLSKADYEKHKVYACEVTHQGLSSPVTKSFNRGEC
notes: Immunocytokine, Format A: anti-NKp30 IgG1 (H12/L12) with sushi-IL-15 at the C-terminus of each heavy chain
In test [1], B1 came in with a Kd of 3.9 nM.

B2: CYTB27 (other)
chain: QVQLVESGGGLVKPGGSLRLSCAASGFTFSSYGMHWVRQAPGKGLEWVAFIRYDGSNKYYADSVKGRFTISRDNSKNTLYLQMNSLRAEDTAVYYCAKDRGLGDGTYFDYWGQGTTVTVSSGGGGSGGGGSGGGGSGGGGSQSALTQPASVSGSPGQSITISCSGSSSNIGNNAVNWYQQLPGKAPKLLIYYDDLLPSGVSDRFSGSKSGTSAFLAISGLQSEDEADYYCAAWDDSLNGPVFGGGTKLTVLGGSSGSSGSSHHHHHHHHGGSSGSSGSS[about 120 residues omitted here]
notes: Comparator, Format F: single chain, monovalent for NKG2D and IL-15 receptor beta
B2: the Kd in test [2] was 4.5 nM; in test [3], 86.7 nM.

B3: CYTB16 (other)
heavy: QVQLQQSGPELVKPGASVKMSCKASGYTFTDYVINWGKQRSGQGLEWIGEIYPGSGTNYYNEKFKAKATLTADKSSNIAYMQLSSLTSEDSAVYFCARRGRYGLYAMDYWGQGTSVTVSS[human IgG1 constant region omitted here]GGSITCPPPMSVEHADIWVKSYSLYSRERYICNSGFKRKAGTSSLTECVLNKATNVAHWTTPSLKCIRGGGGSGGGSGGGGS[about 120 residues omitted here]
light: DIQMTQTTSSLSASLGDRVTISCRASQDISNYLNWYQQKPDGTVKLLIYYTSRLHSGVPSRFSGSGSGTDYSLTINNLEQEDIATYFCQQGNTRPWTFGGGTKLEIKRTVAAPSVFIFPPSDEQLKSGTASVVCLLNNFYPREAKVQWKVDNALQSGNSQESVTEQDSKDSTYSLSSTLTLSKADYEKHKVYACEVTHQGLSSPVTKSFNRGEC
notes: Immunocytokine, Format A: anti-NKp46 IgG1 (H13/L13) with sushi-IL-15 at the C-terminus of each heavy chain; also called CYT16
Consider B3, for which the Kd in test [1] was 2.7 nM.

Source of the values: patent US20260232829A1 (CYTOSPIRE THERAPEUTICS, published 2026).
